This note sets out measurements from the supplement of paper PMC11125491.

First the molecules themselves.
B1: UniProt A0EPZ9; numbered along this chain (parent)
chain: MDWQKSLTLIVALTLSRGIGLKNDLPWKLKSDMMFFSRVTSGLLVTRSTGQMNVVLMGRKTWESLPAHSRPLKNRINVVISRQEVLDLGGGAYHARSLDDALALLSQIYDSTSKIQLNRVFVIGGGELCKAAMEHSRLNRIIATVIHNEVDCDVFFPIDFRSSQSCLPWRKQDHSVLEAWVGSKVPQGKINENGFIYEFEMWIRDI

This data set covers variants of B1. The experiment in a line: selection coefficient against synonymous wild-type codons (log2 per generation); higher = faster growth than wild type. To be noted: with Saccharomyces cerevisiae carrying the variant on a plasmid. The procedure:
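Pooled growth of yeast carrying single-residue variants of P. jirovecii dihydrofolate reductase (own DFR1 gene intact), two passages at 30 °C, three cultures, sequenced before and after. Codons with under 15 starting reads are left out; codons of one change are averaged.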

± gives the standard deviation of the averaged measurements. Growth of baker's yeast expressing single-residue variants of Pneumocystis jirovecii dihydrofolate reductase in 8.8 or 44 µM methotrexate (about 75% and 90% inhibition of the wild type). Selection coefficient per generation; 0 = like wild type, above 0 = less sensitive, below 0 = more sensitive or loss of function. No active / inactive call per row; the paper calls resistant above 0.220 (8.8 µM) or 0.243 (44 µM) together with a significance test. At 44 µM about 15% of codons end with one read or none, so the lowest values are floors (replicate rank correlation 0.74; 0.94 at 8.8 µM).

Turning to MDWQKSLTLIVALTLSRGIGLKFDLPWKLKSDMMFFSRVTSGLLVTRSTGQMNVVLMGRKTWESLPAHSRPLKNRINVVISRQEVLDLGGGAYHARSLDDALALLSQIYDSTSKIQLNRVFVIGGGELCKAAMEHSRLNRIIATVIHNEVDCDVFFPIDFRSSQSCLPWRKQDHSVLEAWVGSKVPQGKINENGFIYEFEMWIRDI [N23F], the “selection coefficient against synonymous wild-type codons (log2)” value (from here on “selection coefficient … (log2)”) is, setting by setting: (methotrexate 8.8 µM) -0.179 ± 0.048; (methotrexate 44 µM) -0.0304 ± 0.023.
For the variant MDWQKSLTLIVALTLSRGIGLKNDLPWKLKSDMMFFSRVTSGLLVTRSTGQMNVVLMGRKTWESLPAHSRPLKNRINVVISRQEVLDLGGGAYHARSLDDALALLSQIYDSTSKIQLNRVFNIGGGELCKAAMEHSRLNRIIATVIHNEVDCDVFFPIDFRSSQSCLPWRKQDHSVLEAWVGSKVPQGKINENGFIYEFEMWIRDI [V122N], the “selection coefficient … (log2)” value runs as follows: (methotrexate 8.8 µM) -0.721 ± 0.14; (methotrexate 44 µM) -0.285 ± 0.046.
MDWQKSLTLIVALTLSRGIGLKNDLPWKLKSDMMFFSRVTSGLLVTRSTGQMNVVLMGRKTWESLPAHSRPLKNRINVVISRQEVLDLGGGAYHARSLDDALALLSQIYDSTSKIQLNRVFVIGGGELCKAAMEHSRLNRIIATVIHNEVDCDVFFPIDFRSSQSCLPWRKQDHSVLEAWVGSKVPQGKINETGFIYEFEMWIRDI [N193T]: the “selection coefficient … (log2)” value is -0.0817 ± 0.067 (methotrexate 8.8 µM) and -0.0846 ± 0.26 (methotrexate 44 µM).
Take MDWQKSLTLIVALTLSRGIGLKNDLPWKLKSDMMFFSRVTSGLLVTRSTGQMNVVLMGRKTWESLPAHSRPLKNRINVVISRQEVLDLGGGAYHARSLDDALALLSQIYDSTSKIQLTRVFVIGGGELCKAAMEHSRLNRIIATVIHNEVDCDVFFPIDFRSSQSCLPWRKQDHSVLEAWVGSKVPQGKINENGFIYEFEMWIRDI [N118T]: the “selection coefficient … (log2)” value is -0.0946 ± 0.046 (methotrexate 8.8 µM) and -0.0582 ± 0.15 (methotrexate 44 µM).
Take MDWQKSLTLIVALTLSRGIGLKNDLPWKLKSDMMFFSRVRSGLLVTRSTGQMNVVLMGRKTWESLPAHSRPLKNRINVVISRQEVLDLGGGAYHARSLDDALALLSQIYDSTSKIQLNRVFVIGGGELCKAAMEHSRLNRIIATVIHNEVDCDVFFPIDFRSSQSCLPWRKQDHSVLEAWVGSKVPQGKINENGFIYEFEMWIRDI [T40R]: the “selection coefficient … (log2)” value (methotrexate 8.8 µM) was -0.591 ± 0.11 and the “selection coefficient … (log2)” value (methotrexate 44 µM) was -0.343 ± 0.058.
MDWQKSLTLIVALTLSRGIGLKNDLPWKLKSDMMFFSRVTSGLLVTRSTGQMNVVLMGRKTWESLPAHSRPLKNRINVVISRQEVLDLGGGAYHARSLDDALALLSQIYDSTSKIQLNRVFVIGGGELCKAAMEHSRLNRIQATVIHNEVDCDVFFPIDFRSSQSCLPWRKQDHSVLEAWVGSKVPQGKINENGFIYEFEMWIRDI [I142Q]: the “selection coefficient … (log2)” value was -0.189 ± 0.059 (methotrexate 8.8 µM) and 0.0287 ± 0.013 (methotrexate 44 µM).
For MDWQKSLTLIVALTLSRGIGLKNDLPWKLKSDMMFFSRVTSGLLVTRSTGQMNVVLMGRKTWESLPAHSRPLKNRINVVISRQEVLDLGGGAYHARSLDDALALLSQIYDSTSKIQLNRVFVIGGLELCKAAMEHSRLNRIIATVIHNEVDCDVFFPIDFRSSQSCLPWRKQDHSVLEAWVGSKVPQGKINENGFIYEFEMWIRDI [G126L], in that order: -0.204 ± 0.041 and 0.00443 ± 0.2.
On to MDWQKSLTLIVALTLSRGIGLKNDLPWKLKSDMMFFSRVTSGLLVTRSTGQMNVVLMGRKTMESLPAHSRPLKNRINVVISRQEVLDLGGGAYHARSLDDALALLSQIYDSTSKIQLNRVFVIGGGELCKAAMEHSRLNRIIATVIHNEVDCDVFFPIDFRSSQSCLPWRKQDHSVLEAWVGSKVPQGKINENGFIYEFEMWIRDI [W62M], for which the “selection coefficient … (log2)” value is -0.607 ± 0.032 (methotrexate 8.8 µM) and -0.276 ± 0.15 (methotrexate 44 µM).
